Over roughly 33,000 sequences, “E-score (-0.5 to 0.5)” has its median near -0.032; the highest 2% begin near 0.36. The list shows a part of the results.
target: T1, Sko1 (UniProt Q02100); experiment: PBM E-score (8-mer binding enrichment) (E-score (-0.5 to 0.5)); higher = stronger / more preferred TF binding; most listed sequences are background and not binding sites; settings: protein concentration: 200 nM; construct: GST-full length
T1 sequence: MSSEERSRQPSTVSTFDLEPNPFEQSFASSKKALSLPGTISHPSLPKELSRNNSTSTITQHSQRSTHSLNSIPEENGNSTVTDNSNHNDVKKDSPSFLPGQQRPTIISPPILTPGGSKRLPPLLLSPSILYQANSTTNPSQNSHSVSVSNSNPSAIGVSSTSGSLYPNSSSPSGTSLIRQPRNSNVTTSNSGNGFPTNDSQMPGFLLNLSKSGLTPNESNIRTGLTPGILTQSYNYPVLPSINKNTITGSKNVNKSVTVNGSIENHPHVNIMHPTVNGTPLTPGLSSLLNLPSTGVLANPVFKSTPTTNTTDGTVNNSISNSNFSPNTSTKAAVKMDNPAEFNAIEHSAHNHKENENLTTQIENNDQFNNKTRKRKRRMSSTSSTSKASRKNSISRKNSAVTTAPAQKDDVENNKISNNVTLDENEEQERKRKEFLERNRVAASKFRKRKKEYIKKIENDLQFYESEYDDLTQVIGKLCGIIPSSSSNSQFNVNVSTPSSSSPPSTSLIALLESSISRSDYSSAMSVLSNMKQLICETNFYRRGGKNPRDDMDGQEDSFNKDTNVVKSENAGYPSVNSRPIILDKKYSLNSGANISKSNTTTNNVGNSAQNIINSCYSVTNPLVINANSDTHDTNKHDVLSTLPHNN
How it was run: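 Yeast transcription factors, full-length or as DNA-binding domains, were expressed with a GST tag using PURExpress in vitro transcription/translation. At about 100-200 nM they were applied to universal all-10-mer Agilent arrays, double-stranded by primer extension on fresh or once-stripped slides. Fluorescent anti-GST detected bound protein, and masliner normalised the scans. E-scores for ungapped eight-base words, pooled with reverse complements, came from the Universal PBM Analysis Suite.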

Sequence	PBM E-score
TACAGTGA	0.158
TGCAGGCA	0.0629
AACTTGCT	-0.19
TATTCCGA	0.0478
ATTACGTC	0.492
CGCATAAC	0.245
TACTGCAA	0.0647
ACCTGGAG	-0.148
GCTCGACA	-0.181
CAGGCCTC	-0.423
GACTTCCC	-0.161
CGAAACAC	0.153
AACAAGGC	-0.201
CACGATTC	0.0829
AGAAATGA	0.113
TACCAGAA	-0.0119
ATGACCCC	-0.25
CGTTCGAC	-0.0502
ACCGACTC	-0.271
GGGCTGAC	-0.00802
AAGTAGAG	-0.0678
CTATTACC	-0.137
ACGGGTAC	-0.0904
CCAGTGGC	-0.185
TAAAATGA	0.243

Sequence	PBM E-score
AAGGTCGG	-0.226
ACACATCT	-0.00947
CCCACTAA	-0.0314
AATAAGTG	0.0221
AGCTTCTA	-0.227
CAGAGTCC	-0.11
CCCAGCTC	-0.414
GAATCCTC	-0.194
CGTGGCAC	0.148
CTTTAGGC	-0.1
ACGTACAA	0.414
CCCTAGCC	-0.205
GCCCGGCA	-0.33
ATGACGCA	0.492
CTCAACGA	-0.0282
ATGGGAGG	-0.185
TACAGCGA	-0.12
CGGGTGTA	-0.257
GCTTTCCC	-0.253
CTTGTACC	-0.0456
AAGGTTAC	0.094
AAATGGCT	-0.0674
ATTCAATG	0.133
ATCGTCTC	-0.0603
ACTACTAC	0.0419

Sequence	PBM E-score
AGCTCGTA	0.172
TGCATGCA	-0.0609
CCAGCCAA	-0.0361
AGCTCACT	-0.16
CGTTGCTA	0.153
AGTTCGTG	0.0924
AGCTATCG	0.0005
CTTAACGA	0.0673
CGTGTTGA	0.229
CGCGGCAA	-0.171
GTACTTGA	0.126
CCTCGTAG	0.102
ATTTCATA	0.124
ACTACATG	0.151
GTCAGGCA	0.0902
CGGATACG	0.242
ATCTACGG	-0.0475
CAGTCGGC	-0.295
ACAAAGAG	-0.231
CAGTGATG	0.195
AAAAAATC	0.072
ACTTGGAC	0.0279
GGGGGGAC	-0.298
CCGCTGAG	-0.29
ACCTGCCG	-0.175

Sequence	PBM E-score
ACCTTCTC	-0.22
AGCGGCTA	-0.0414
ATTGCGCC	-0.0972
AGACATAG	-0.0472
TCAATGAA	0.092
AGAACACA	0.128
AGGTTAGC	-0.163
CTATGTGA	0.154
CGAACATA	0.113
GGATCCCA	-0.0813
GCACCTAC	-0.102
TAGACCAA	-0.0515
CAGTCAAG	-0.0856
AGGAGTAC	-0.0519
AATTTTAT	0.23
ACCAATGA	0.0754
CACCATTC	-0.0698
AGTCCGAA	-0.115
ATAGTTGG	-0.0293
AATAAGAG	-0.0433
CCCAAGGG	-0.408
ACCGGGAC	-0.177
GTGACGAA	0.446
TGCGTAAA	0.404
TATGCTCA	0.0932

Sequence	PBM E-score
ATGTCCAA	0.0296
GCTGTGAA	-0.217
CCTTGCAA	-0.328
CCCAACCA	0.0349
ACAGGTTA	0.0312
ATTCAAAC	0.129
ACGGGAGA	-0.175
AGTAGTCG	-0.0397
GTTCACCA	-0.0203
AATTCATC	-0.0881
AGCCCCAG	-0.339
AATGAGCA	0.152
GAAAACCC	-0.237
GCGAAGAC	-0.257
CGTTCTTC	0.0489
GATAATAA	0.0251
CGGAAGTA	-0.19
CGGGCATC	-0.324
GATATTGC	0.022
CCCCACCG	-0.273
GCCGAAGC	-0.233
AGGTGCCG	-0.247
CGCTAAAC	0.103
CAGTAAGC	-0.0667
ATGCCCAG	-0.296

Sequence	PBM E-score
CCGTAGAG	-0.258
CCTTATTA	0.184
AAGGCATT	-0.134
CCCCAGAG	-0.261
ACCCACTC	-0.123
AATTGACT	-0.0553
AAAGGTGT	-0.138
CAGGACTC	-0.0403
CACGTACC	0.407
ATCGGCCA	-0.181
ACCAGCCA	-0.235
GACGACGC	0.241
CGTGTCAC	0.268
AGCGGTCG	-0.171
ACCTCCCA	-0.257
AAACTTGC	0.12
ATGTTCTA	0.0474
ACCCACAA	0.00178
GACTGACC	-0.166
AGAGCAGC	-0.173
CAACTCGG	-0.214
TCCATTCA	-0.0378
GGCTGCTA	-0.177
AGTGCCAT	-0.134
GACCAATA	0.0125

Sequence	PBM E-score
GCACTAGC	-0.143
CCGCCCTC	-0.23
CCGTCGGA	-0.0879
CAAGTTTC	0.0422
ACCATGCT	-0.0226
CTAGCTGC	-0.201
CCTGTCCG	-0.0997
CGGGAGCC	-0.265
GGAAGGCC	-0.252
GTGCAAAC	0.00584
CCTGCTTC	-0.195
CATATGCA	0.168
GTGTAGCA	-0.0576
ACCCAAAG	-0.0205
CAAGAGTG	-0.148
CGTCAACA	0.323
AGCTTAGA	-0.009
AGGTGATA	-0.121
TACGAAGA	0.161
AGCTTACT	-0.0585
ACATATTG	0.127
AAGGCAGC	-0.141
CCAGAAAG	0.0379
CACCCGGG	-0.242
CAGCAACA	0.0646

Sequence	PBM E-score
AGGCACCC	-0.278
CCGGGCAC	-0.318
ATCAATCG	0.21
CGATGGTC	0.0498
ATTCGGAG	-0.0893
CCTTGTAG	-0.147
CATAATGA	0.289
GGGCCCGA	-0.0786
CTCTCAAG	-0.0391
ATTGTGCA	0.076
GAAGTCAC	0.0364
AGCTCTTC	-0.135
ATCGACTG	-0.122
TATTTACA	0.235
CTCCCCCC	-0.197
TCAAAACA	0.0876
CTTTTCGC	0.124
TCCGACAA	-0.0439
CCTGCCAC	-0.147
TATAAGAA	0.0806
CGGGTGAG	-0.217
AATTTGTC	0.147
ATGCTCTA	-0.14
CTTATAAG	-0.174
GAATGAAA	0.051

Sequence	PBM E-score
ACTAGATG	0.0325
CGGTGTCA	-0.0493
AACACTCC	-0.0803
AAAGCTCC	-0.162
CCCCGGCG	-0.242
ACCCGCTG	-0.242
AACGGGTG	-0.174
CTCCGACC	-0.408
AGCTAAGC	-0.188
CAACTCCG	-0.0221
ATCCGCAA	-0.0993
CTCTTGCC	-0.0193
AACGTAGA	0.357
TCACTCAA	0.0033
AAACGGGC	-0.131
ATATTTCG	0.235
AAGTATGC	-0.0547
GCTTACCC	-0.365
ATGCCGTC	0.125
GCTTAATA	0.0235
ATGGTCTG	-0.0945
CATTCGAA	0.106
ATTCGTTG	0.0792
GATGTAAC	0.229
GATGGGAC	-0.215

Sequence	PBM E-score
TGCCGGAA	-0.0998
AAATTCCG	0.0779
GATCCACA	-0.0832
GCTGTTTA	0.0734
TCACACCA	0.12
GACGACTA	0.0238
ACACTATC	0.0147
AGCCGGTC	-0.119
CAGAATGC	-0.171
CCTCTCCA	-0.204
CGTCTTCA	0.202
ACGGGTGA	-0.0676
GCCCACGC	-0.12
ACGAGTCA	0.00223
AAATGTAC	0.171
CATAATTC	0.238
CGAAGAAA	0.0872
TAAACTAA	0.23
AGTGATCC	-0.194
CCGGGAGA	-0.315
CAATTTAC	0.132
GTCTTAAC	0.081
CCCCAGTA	-0.235
ATAGGCTC	-0.0336
CCAAGAGC	-0.203

Sequence	PBM E-score
CCGAAACG	0.0669
CGTAGTGC	0.31
GATATGCC	-0.224
CGAGAACA	0.0508
CCGAGCAA	-0.0691
CAGATAGA	-0.0614
GGAAGCCA	-0.422
CCGTGGTC	-0.235
CCGCACCA	-0.0308
AGTATAGA	0.0171
AATGTACG	0.246
AAGACAAT	0.0764
CCTTCTAC	-0.144
ACAGTTCC	-0.224
GTGCTTCA	0.0642
CGCGGCCG	-0.196
CTTCTTGC	-0.051
ACGCCCCA	-0.096
CGCCAGCC	-0.206
ACACTGGC	-0.147
GGGAAGCA	-0.156
CGGCGGAC	-0.233
TACAGAGA	-0.156
CGTTCCAG	-0.0778
ACTTGGGG	-0.268

Sequence	PBM E-score
CCAGAGAA	0.0433
GCAACTGC	0.131
AATGCCCA	-0.173
ATCTCGGC	-0.191
GCCCATTA	-0.0116
ACAATAAG	-0.0356
CAAAAAAC	0.128
GACAAACC	-0.169
ACGCACGG	0.215
GACTCATC	-0.0097
CAGGTGCC	-0.236
ATTCGGTA	0.185
AGATGGAC	0.0798
GTCGATAA	-0.00607
CAACTTGA	0.12
ATGGGGGA	-0.249
ACTGAGCA	0.0376
AAAGAAGT	-0.0616
TCATCACA	0.157
AACGAATT	0.197
GAAGATTA	0.0617
TAGGTGCA	0.00381
ACACAGCT	-0.139
CCAACAAA	0.0828
GAAGAACA	0.0683

Sequence	PBM E-score
ACAGGAAG	-0.149
AAACCTAA	0.103
GCTAACCC	-0.201
CCCAGCAA	-0.111
GTCAAGGA	0.0614
CGAGAGGA	-0.042
ATAGCTAG	-0.118
CGACGGTA	0.017
CATTGCAG	0.0387
AGTTGACC	-0.231
CCAGAGAC	-0.251
GATTTCTA	0.0392
ACGAATGG	0.209
AATGCGCT	0.0446
CGCAACCA	0.112
CAACGCTA	-0.0907
CTTTGGGC	-0.121
GATGTAGA	0.144
ATTCGGAC	0.0799
GGCACCAA	-0.24
ATCGGTCG	-0.0591
AACGCAAC	0.289
ACTAATAT	0.262
AAAGCTCG	-0.0371
GTAAATGA	0.208

Sequence	PBM E-score
GGTCTACA	0.0302
AATTACAT	0.375
CGGGACAA	-0.129
ACATGAAA	-0.00331
CATATGGC	0.0838
CAGATGGC	0.0972
GGTCACTA	0.0129
ATTTGAGG	-0.0685
GTTGGTGA	0.143
CAGGGAAC	-0.0438
AATACGCT	0.186
AATTCAGT	0.0335
AAGAACCA	0.0903
AAATGTGC	-0.0126
GGCTCCGA	-0.311
TGCGACCA	0.0795
CGTGCAGA	0.0811
CCGTGTGA	-0.0471
AATTAAGG	-0.0906
